Reference: PubChem BioAssay AID1159614 (National Center for Advancing Translational Sciences (NCATS), 2016)
The whole screen tested about 45,000 compounds, of which about 65 (0.1%) were called active. Calls come from the whole dose curve; as a rule, active = well fitted activation curve with a large enough effect; inconclusive = small, poorly fitted or top-dose-only effect; inactive = no such curve, though single readings can be large or run the other way. Some of the results follow.

target: Galactocerebrosidase (Homo sapiens) (UniProt P54803); assay: A Novel Cell-Based Assay to Identify Small Molecules for B -Galactocerebrosidase; settings: 145M-Twi-hGALC-G270D cells (Twitcher mouse brain line with human GALC G270D), HMU-beta-Gal fluorescence, 48 h; series mostly up to 57.5 µM; activation: at the top concentration; note: 0% is about no effect; nearly all actives have a fitted effect of over 65% in size
UniProt P54803, sequence (P54803 whole entry, looked up): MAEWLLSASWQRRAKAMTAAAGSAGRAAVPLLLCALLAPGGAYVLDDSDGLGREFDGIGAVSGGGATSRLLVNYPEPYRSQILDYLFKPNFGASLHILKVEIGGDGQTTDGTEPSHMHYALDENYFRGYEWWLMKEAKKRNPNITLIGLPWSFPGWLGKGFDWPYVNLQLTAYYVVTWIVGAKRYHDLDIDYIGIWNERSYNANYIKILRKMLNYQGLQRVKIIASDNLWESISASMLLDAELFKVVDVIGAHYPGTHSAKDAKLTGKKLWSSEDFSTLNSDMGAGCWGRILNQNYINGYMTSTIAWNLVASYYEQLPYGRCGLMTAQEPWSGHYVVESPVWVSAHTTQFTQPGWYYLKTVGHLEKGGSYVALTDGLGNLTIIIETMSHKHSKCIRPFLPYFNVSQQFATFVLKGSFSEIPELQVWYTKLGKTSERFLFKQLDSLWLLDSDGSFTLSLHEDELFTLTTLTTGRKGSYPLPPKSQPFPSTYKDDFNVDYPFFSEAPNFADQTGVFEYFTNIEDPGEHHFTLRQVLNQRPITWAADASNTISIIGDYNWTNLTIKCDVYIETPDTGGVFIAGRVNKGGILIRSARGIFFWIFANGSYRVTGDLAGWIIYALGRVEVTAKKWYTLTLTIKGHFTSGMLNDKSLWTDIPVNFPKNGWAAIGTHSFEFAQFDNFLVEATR
Summary of the method: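 Fluorescence readout: HMU-β-gal cleavage by mutant GALC (0.1 mM final, citrate/phosphate pH 5.2 with 1 mg/mL taurocholate), stopped with carbonate/bicarbonate plus Triton X-100. Cells: murine Twitcher 145M-Twi expressing human G270D GALC; qHTS for activators.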

| SMILES | activation |
| --- | --- |
| CCOC(=O)c1sc(NC(=O)/C=C/c2ccc(OCC)cc2)c(C(=O)OCC)c1C | inactive: 27.3% |
| COc1cccc(C(=O)Nc2cc(-c3ccccc3)no2)c1 | inactive: -18.2% |
| CC(C)CC(=O)Nc1ccc(C(=O)OCc2cc(=O)n3nc(C(C)C)sc3n2)cc1 | inactive: -5.65% |
| COc1ccc(/C=C/c2nc(C#N)c(NCCc3ccc(OC)c(OC)c3)o2)cc1OC | inactive: -9.43% |
| COc1ccc(-n2c(=O)c3ccc(C(=O)NCc4ccc(C)cc4)cc3n(CC(=O)Nc3ccc(F)cc3)c2=O)cc1 | inactive: -8.53% |
| CC(C)CC(NS(=O)(=O)c1ccc2c(c1)oc(=O)n2C)C(=O)NCCc1ccc(Cl)cc1 (stereo not drawn) | inactive: -17.2% |
| COC(=O)c1ccc(NC(=O)c2cc(S(=O)(=O)N3CCc4ccccc43)cn2C)cc1 | inactive: -10.2% |
| O=C(CSc1cn(CCNC(=O)c2c(F)cccc2F)c2ccccc12)Nc1ccc2c(c1)OCCO2 | inactive: -0.167% |
| Cc1ccc(NC(=O)c2oc3ccccc3c2NC(=O)c2cc3ccccc3o2)cc1 | inactive: -7.65% |
| O=C(OCc1cc(=O)n2nc(C3CC3)sc2n1)c1ccc(F)cc1 | inactive: -11.6% |
| CCOc1ccccc1NC(=O)Cn1cnc2onc(-c3ccc(F)cc3)c2c1=O | inactive: -21.2% |
| Cc1cc(C)cc(NS(=O)(=O)c2ccc3[nH]cc(C(=O)N4CCCC4)c(=O)c3c2)c1 | inactive: -8.02% |
| O=C(Nc1cccc(C(=O)N2CCN(c3ccc(Cl)cc3)CC2)c1)c1nsc2ccccc12 | inactive: -11.1% |
| CC1=C(C(N)=O)C(c2cccc(Br)c2)n2nc(SCc3ccccc3)nc2N1 (stereo not drawn) | inactive: -1.66% |
| CCCCc1nnc(SCc2cc(=O)c3cc(C(=O)OCC)ccc3[nH]2)n1C | inactive: 6.53% |
| O=C(NCc1cccnc1)C1CCN(Cc2cc3ccccc3n2Cc2cccc(Cl)c2)CC1 | inactive: -1.11% |
| O=C(Cc1ccccc1)Nc1sc2c(c1C(=O)Nc1ccc(Cl)cc1)CCCC2 | inactive: 2.8% |
| O=C(NCCc1csc(-c2cccc(F)c2)n1)c1cccs1 | inactive: -19.2% |
| Brc1ccccc1-c1ccccc1 | inactive: -10.7% [at 114 µM] |
| N#C/C(=C\c1ccc(Cl)cc1)c1nc2ccccc2[nH]1 | inactive: 21.1% |
| Cc1cccc(NC(=O)CSc2nc3c([nH]c4ccccc43)c(=O)n2C)c1C | inactive: -11.2% |
| CN(C(=O)CSc1nc2c(c(=O)[nH]1)CCCC2)c1ccccc1 | inactive: -10.6% |
| CCOc1ccc(S(=O)(=O)N2CCN(c3c(C)cccc3C)CC2)c2ccccc12 | inactive: -11.7% |
| COc1ccc(-c2nc(SCC(=O)Nc3ccc4c(c3)OCO4)c(-c3ccc(OC)cc3)[nH]2)cc1 | inactive: -18.6% |

| SMILES | activation |
| --- | --- |
| CCOc1ccccc1NC(=O)C1CCN(S(=O)(=O)c2ccccc2)CC1 | inactive: -18.8% |
| COc1ccccc1CNC(=O)Cn1ncc2c3ccccc3n(Cc3ccccc3C)c2c1=O | inactive: -7.42% |
| CC(NC(=O)Nc1ccccc1C(F)(F)F)c1c(-n2cccc2)sc2c1CCCC2 (stereo not drawn) | inactive: -16.5% |
| COc1ccccc1NC(=O)CSc1oc(-c2cccs2)nc1S(=O)(=O)c1ccc(Br)cc1 | inactive: -18.9% |
| CCOC(=O)c1ccc(NS(=O)(=O)c2ccc(Br)s2)cc1 | inactive: -9.29% |
| Cc1cc(C)cc(OC(=O)c2snnc2C)c1 | inactive: -10.2% |
| O=C1Nc2ccc(S(=O)(=O)Nc3ccccc3O)c3cccc1c23 | inactive: -14.6% |
| COc1cc(Cl)c(C)cc1NC(=O)CSc1ncc(S(=O)(=O)c2ccc(C(C)(C)C)cc2)c(=O)[nH]1 | inactive: -17.8% |
| Cn1c2ccccc2c2c(C(=O)N3CCN(c4ccc(F)cc4)CC3)cn(C3CCCCC3)c(=O)c21 | inactive: -19.4% |
| COc1ccc(NC(=O)CSc2nnc(-c3cccs3)o2)cc1 | inactive: -22.7% |
| CCOc1ccccc1Nc1cc(-c2ccccc2)nc(C)n1 | inactive: -10.6% |
| COc1cc(C(=O)Nc2ccc3oc(-c4ccccc4)nc3c2)cc(OC)c1OC | inactive: -24.6% |
| COc1cc(NC(=O)Cn2ncc3c([nH]c4ccc(C)cc43)c2=O)cc(OC)c1OC | inactive: 0.853% |
| CC(C)(Oc1ccc(C2CC2(Cl)Cl)cc1)C(=O)O (stereo not drawn) | inactive: -7.33% |
| COc1ccc(-c2noc(CSCC(=O)Nc3cccc(C(F)(F)F)c3)n2)cc1OC | inactive: -13.6% |
| CCOc1ccc(C2Nc3ccccc3-c3nnc(SCc4ccccc4)nc3O2)cc1OC (stereo not drawn) | inactive: -5.9% |
| Cc1ccc(S(=O)(=O)CC(=O)Nc2sc3c(c2C#N)CCCCC3)cc1 | inactive: -6.03% |
| CC(C)CCN(Cc1ccco1)C(=O)c1cc2c(Cl)nc3ccccc3c2s1 | inactive: -13.2% |
| CCc1cccc(NC(=O)c2ccc(CN3C(=O)C(C)=C(c4ccc(OC)cc4)S3(=O)=O)cc2)c1 | inactive: 2.81% |
| CCC(=O)N1CCc2cc(Br)cc(S(=O)(=O)CCC(=O)NCCc3ccc(Cl)cc3)c21 | inactive: -11.3% |
| CCOc1ccccc1NC(=O)Nc1nnc(N2CCCCCC2)s1 | inactive: -8.35% |
| Cc1ccccc1CNC(=O)C1CCCN(S(=O)(=O)N(C)c2ccc(F)cc2)C1 (stereo not drawn) | inactive: -20.3% |
| CCCOc1ccc(-c2nn(-c3ccccc3)cc2C2NC(=O)NC(C)=C2C(=O)OC)cc1C (stereo not drawn) | inactive: -30.5% |
| COc1ccccc1C(=O)Nc1nc(-c2ccccc2)ns1 | inactive: -18.8% |
